This passage reports binding signal results from article PMC12136788.

This is one part of the list.

T1: UNK ZnF1-3 (human, UniProt Q9C0B0 31-174)
T1 sequence: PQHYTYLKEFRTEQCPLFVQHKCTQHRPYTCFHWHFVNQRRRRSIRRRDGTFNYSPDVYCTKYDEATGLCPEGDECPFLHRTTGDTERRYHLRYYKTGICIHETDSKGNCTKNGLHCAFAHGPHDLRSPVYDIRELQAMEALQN

B1: chr7:126859785:126859786:-_ENSMUSG00000030942_ENSMUST00000033236|mus_mus|FALSE|FALSE (ssRNA)
RNA: GGGAGUUCUACAGUCCGACGAUCACCUGCAGUGAUGAGACAUCAGAUUUGCAAACAAAACAAACAAAAACCCAAGAAAAACUAACAGCAGAAAGCAUCACAAAGUGAUUCCCAUAUAAUCCACAAUGCAGCUUCUCUAUGUGUCAACAGAGGAUUGAGCAUCA
B2: chr2:32515631:32515632:+_ENSG00000119820_ENST00000437765|hu_hu|FALSE|FALSE (ssRNA)
RNA: GGGAGUUCUACAGUCCGACGAUCUUCAGGAUCAUCAUCUUCAACUUCCAGAAGCCAGCCAUAACCUCUUUGUCUCAGAAAUGUAGUAGCUGUAGAUUCUUUGAUAAAAUCUCCACCAAGAUUUAAUUUGACAUCUGGGGAUGCCAACAGAGGAUUGAGCAUCA
B3: 197128527_197128647_2700_CDS_ENSG00000177888_ENST00000367405|human|control|control (ssRNA)
RNA: GGGAGUUCUACAGUCCGACGAUCAGUAGUGCUAUCAAGGCCCAGUAAUGUUCCAAGAUAAGAUUGUUCUCUAGGAUCUAGCAUUUGUUCAGGUCGAACUGGGUGAACUAUAUUUGCAGGUUGAGGAGUAAGAGUAUAUUUUUCCAACAGAGGAUUGAGCAUCA
B4: chr12:16052864:16052865:+_ENSG00000023734_ENST00000419869|hu_mus|FALSE|FALSE (ssRNA)
RNA: GGGAGUUCUACAGUCCGACGAUCCCACAAUCUCAAUGUCCCAUCUUCAGAACCGCUGGCAUAGAGUUCCCCAUCAGGACUGAAUCUCACACAGUGAAUGGGACCAAAGUGACCUUUGUAGGAUUCUAACUCUUCUCCACUGUUCAACAGAGGAUUGAGCAUCA
B5: chrX:71549762:71549763:+_ENSMUSG00000019087_ENSMUST00000019231|mus_mus|mus_mus_mus_hu_False|68_68 (ssRNA)
RNA: GGGAGUUCUACAGUCCGACGAUCAAACCCGUGUACUUCUUAUUGUUAGCACAACAUCACCAGAAAAAAAACAUAACAGCCAAGCAGGACAGACAGUUAAGUAGUACUUCCACACUCCCAAACUCAGGGAGCCCUAUAACCUUACAACAGAGGAUUGAGCAUCA
B6: chr7:27827042:27827043:+_ENSG00000106052_ENST00000265393|hu_hu|FALSE|FALSE (ssRNA)
RNA: GGGAGUUCUACAGUCCGACGAUCUUUGUUCCCAUCUAAAUUUUUUAAAGUCUGGACCUCUGACAUAAGCUUGGUAUUUUCUAUUUCUGUAUUCUUCAAAUGUACCUUAUAAAGUUCCUUUUCAUCCUUCUCUGUCUUCAACUGCAACAGAGGAUUGAGCAUCA
B7: chr12:493273:493274:-_ENSG00000073614_ENST00000399788|hu_mus|hu_hu_hu_mus_False|88_88 (ssRNA)
RNA: GGGAGUUCUACAGUCCGACGAUCUUUUCUCUCCACCACAGGGAUCUUCAGAGUAGAUCCUUGAAGUUCCCAAAAUUUUGCCAGUUGAUCCAAGAAGUCCAAUCUUACUCUAGUCAUUGCCUCAAGUUCAUUCAGGCGCUGGACCAACAGAGGAUUGAGCAUCA
B8: chr2:135163197:135163198:+_ENSMUSG00000051177_ENSMUST00000110116|mus_hu|FALSE|FALSE (ssRNA)
RNA: GGGAGUUCUACAGUCCGACGAUCGAAGAGCUGAGGCAUAUAGUUGGAUGAAUCCACACGUGUUCCUUUUGGAUAUAUCCUGCUAAGCUGCAUUUUGUUAUAUUCUACAAAUUCCACUGGAGACUUGGUGAGUUGUUCAAGUCCCAACAGAGGAUUGAGCAUCA
B9: chr1:35650007:35650008:-_ENSG00000116560_ENST00000357214|hu_hu|FALSE|FALSE (ssRNA)
RNA: GGGAGUUCUACAGUCCGACGAUCAUCCAUAAAAAGAUAGCUUUCUUACUAAAAUGCAAGAAUUUAAAAGAUUGGUAUCUAAACAAAAAAACAAAACAAACUGGAAUGAAAGCCUAAAUAUCACAUCUAAAAUCGGGGUUUUUUCAACAGAGGAUUGAGCAUCA
B10: chr11:86503612:86503613:+_ENSMUSG00000072582_ENSMUST00000108022|mus_hu|FALSE|FALSE (ssRNA)
RNA: GGGAGUUCUACAGUCCGACGAUCCUGACAGGCUUCAAACACUUGUGAUGGAGGGGUUGUUGUCAUAUCAAAGUCCACCUAGUAAAGUUUUAGGUGACCAGUGACUUUGUCAAUUAGGUCUGCUGGUCCUGGCCCAAUCCCUAGCAACAGAGGAUUGAGCAUCA
B11: chr7:141450121:141450122:+_ENSG00000106028_ENST00000265304|hu_mus|hu_hu_hu_mus_True|1_88 (ssRNA)
RNA: GGGAGUUCUACAGUCCGACGAUCUCAUCCGUUCUAUGCCUUUUCUUUCGUCUGGUCACUCAGAAAUAUAAUGUUAUCAGCUAUGAUUGUUGUUGCUUGCCGCCUCACAUUGUUUUUAUCCAUGUACUCGCCAUAGUCUAUUUUCAACAGAGGAUUGAGCAUCA
B12: chr18:33744517:33744518:+_ENSG00000134759_ENST00000351393|hu_mus|FALSE|FALSE (ssRNA)
RNA: GGGAGUUCUACAGUCCGACGAUCUAAGAACUUGUCAUCAGGUGAGAAUGUCAUCUGUGUGACAGUCAGAGUGUGGAAAGCAAGACUCUGCACUUGUUUCCAAGAUGCCGUGCUCCAAAGAAUGAUAGCUGCGUGCUCCUUCUGCAACAGAGGAUUGAGCAUCA
B13: chr2:42510052:42510053:+_ENSG00000143924_ENST00000318522|hu_mus|FALSE|FALSE (ssRNA)
RNA: GGGAGUUCUACAGUCCGACGAUCACAGUCUGUAUGACCCAGGUAGUGUCGCUGAGUCCUCUCCUCAUAAUUAAACAGGACUACCACUGAGGCGAUAAAAUAAACUAUCUCCCCUGUGGGAAGCAGGUAUACAUUCGCUCUACACAACAGAGGAUUGAGCAUCA
B14: chr8:117878989:117878990:-_ENSG00000164754_ENST00000297338|hu_hu|hu_hu_hu_mus_True|1_48 (ssRNA)
RNA: GGGAGUUCUACAGUCCGACGAUCCCAGAGGCCCUCGUUUACUGAGGACAAAAUGUGCGUAGAACAUUUUUCUUAUUUGCUAUGAAAACAGAAGAAACCUGGAUCUCGGCGGGGAGCCGGGAGGGGUGGGUGGCCCGGGGGAGGCAACAGAGGAUUGAGCAUCA
B15: chr12:6601462:6601463:-_ENSG00000111639_ENST00000229238|hu_mus|FALSE|FALSE (ssRNA)
RNA: GGGAGUUCUACAGUCCGACGAUCCUCUCCUUGCUGGGAUAAGUCCUGUUCCCCUUCUCCAGGGUGACACAUUUCCCGUCCUAUCUGUACUUCCCAUGUCGGUUAAAGUGUUUGUAGAGAUAGCUGAUCCGUUUGUUAAGGUUACAACAGAGGAUUGAGCAUCA
B16: chr14:89307221:89307222:+_ENSG00000165533_ENST00000346301|hu_mus|hu_hu_hu_mus_False|18_18 (ssRNA)
RNA: GGGAGUUCUACAGUCCGACGAUCUCCUGUUUGGUUAGUGCCAGGGAGCUUCAAAGAUGUGCCAGGGCGUGGGACCUGAGCAAUAGCAUUUUCAUCCAGGAUCAUUUCAGCAAUUCCUUCCUGAUCUACAUCAAUUUCAUCUAUCAACAGAGGAUUGAGCAUCA
B17: chr19:12019223:12019224:+_ENSMUSG00000046139_ENSMUST00000061618|mus_mus|FALSE|FALSE (ssRNA)
RNA: GGGAGUUCUACAGUCCGACGAUCUGUGAAGGGAAGGUAGGAAAGGCUCAGUGGAGACAGUCAGUAGAUGGUAGAAGGAAGCUAGGGACUGUCACUGGGGAGCAGCUGGUGGAGCCCGAGGCCACAAAAUGAGAAGAAAUGGAGCAACAGAGGAUUGAGCAUCA
B18: chr3:157717571:157717572:+_ENSMUSG00000063052_ENSMUST00000156597|mus_mus|FALSE|FALSE (ssRNA)
RNA: GGGAGUUCUACAGUCCGACGAUCUCUUGAGUUCCUUUAGCUAUAAUUUCUCUUCGAAUGGUUCUUAGAGGAUUUCCUUCUAGUGCCAGGAAUUUCAAAUGAAGAUUUCCCAAUGAGCAGGGCAGACUACUAAUAUCAUUGUUGCAACAGAGGAUUGAGCAUCA
B19: chr6:160200703:160200704:-_ENSG00000120438_ENST00000392168|hu_mus|FALSE|FALSE (ssRNA)
RNA: GGGAGUUCUACAGUCCGACGAUCGUGAAAAGCUCUUAACUUGGCAACCAGGUCGGUGGAGUCCUGGGCAGCAUUCACUGCCAGUGUAUUAGGAAUCACAAGCAGAGAUCUUGCAAACUCUGCAAUAGCAAGCUGUUCCCGAGACAACAGAGGAUUGAGCAUCA
B20: 23958445_23958565_7413_CDS_ENSMUSG00000039218_ENSMUST00000088621|mouse|control|control (ssRNA)
RNA: GGGAGUUCUACAGUCCGACGAUCUGAUGAAGAGGAGGAGGAGCUAGAUGAUGAUGAAGAGGAGGAAGAGCUCCGACGUUCCUUAGCUGGUUGCAGAGCAGCCAAUGUAGAAGGCUGCUGGGCCCCAGUAGAGGCAGGUGGCUCCAACAGAGGAUUGAGCAUCA
B21: 19451973_19452093_1365_CDS_ENSMUSG00000057551_ENSMUST00000079042|mouse|control|control (ssRNA)
RNA: GGGAGUUCUACAGUCCGACGAUCAUAGUGUCUCUCCUGAGUGUGAAUCUUCCUGUGUGCAGUGAGGUUGGAACUAGCACUGAAGGCUUUGCCGCAGAGAUCACAGCCAUAAGGUCUCUCCCCAGUGUGAGAGUUCAUGUGUGUCAACAGAGGAUUGAGCAUCA
B22: 30947562_30947682_694_CDS_ENSMUSG00000037029_ENSMUST00000062181|mouse|control|control (ssRNA)
RNA: GGGAGUUCUACAGUCCGACGAUCGAGUUUCCCACAUACCUUACAGGCAAAGGGGCUUCCCCCGCUUAAGAUUCUCUGCUGGCUGAGCUGUGACAUCUGAGUGGAAGAGUGAUCUCAUUCACAGCGCUUCUCUGCAAUAGGGAACAACAGAGGAUUGAGCAUCA

The assay deals with T1, UNK ZnF1-3. As to the kind of experiment: nsRBNS (natural sequence RNA bind-n-seq); RBNS binding buffer (assumed for nsRBNS): 25 mM Tris pH 7.5, 150 mM KCl, 3 mM MgCl2, 0.01% Triton X-100, 500 ug/ml BSA, 20 U/ml SUPERase-In, 4 C; UNK is unkempt and MSI1 is Musashi-1; names of the RNAs are library labels; protein concentration not given here; high values mean tight binding.
For the molecule B1, the binding signal came to 2.19 enrichment R.

For B2, the binding signal stood at 1.21 enrichment R.

B3: the binding signal is 1.48 enrichment R.

Consider B4, for which the binding signal was 0.851 enrichment R.

Turning to B5, the binding signal came out at 1.83 enrichment R.

Molecule B6 yielded a binding signal of 0.518 enrichment R.

B7: the binding signal is 1.01 enrichment R.

B8 returned a binding signal of 0.929 enrichment R.

For the molecule B9, the binding signal was 2.74 enrichment R.

B10: the binding signal was determined as 0.598 enrichment R.

Molecule B11 yielded a binding signal of 0.418 enrichment R.

In turn, B12 returned a binding signal of 0.797 enrichment R.

For B13, the binding signal was determined as 1.17 enrichment R.

Molecule B14 had a binding signal of 1.69 enrichment R.

In the case of B15, the binding signal was determined as 0.639 enrichment R.

Turning to B16, the binding signal was 0.826 enrichment R.

Molecule B17 displayed a binding signal of 2.02 enrichment R.

B18 displayed a binding signal of 0.953 enrichment R.

Consider B19, for which the binding signal was determined as 0.939 enrichment R.

B20 came in with a binding signal of 1.95 enrichment R.

B21: the binding signal turned out to be 0.813 enrichment R.

B22 came in with a binding signal of 0.877 enrichment R.
